Paper PMC5554784
Results are given in words; binding and its absence hold for the method and conditions named. Binding seen in cells or lysates may run through a third protein. Some binding calls cover weakened binding; strength is not graded here. Sequences can lack the tags named with a protein.

T1: FLAG-Pat1b T522E (human) (UniProt Q86TB9)
T1 sequence: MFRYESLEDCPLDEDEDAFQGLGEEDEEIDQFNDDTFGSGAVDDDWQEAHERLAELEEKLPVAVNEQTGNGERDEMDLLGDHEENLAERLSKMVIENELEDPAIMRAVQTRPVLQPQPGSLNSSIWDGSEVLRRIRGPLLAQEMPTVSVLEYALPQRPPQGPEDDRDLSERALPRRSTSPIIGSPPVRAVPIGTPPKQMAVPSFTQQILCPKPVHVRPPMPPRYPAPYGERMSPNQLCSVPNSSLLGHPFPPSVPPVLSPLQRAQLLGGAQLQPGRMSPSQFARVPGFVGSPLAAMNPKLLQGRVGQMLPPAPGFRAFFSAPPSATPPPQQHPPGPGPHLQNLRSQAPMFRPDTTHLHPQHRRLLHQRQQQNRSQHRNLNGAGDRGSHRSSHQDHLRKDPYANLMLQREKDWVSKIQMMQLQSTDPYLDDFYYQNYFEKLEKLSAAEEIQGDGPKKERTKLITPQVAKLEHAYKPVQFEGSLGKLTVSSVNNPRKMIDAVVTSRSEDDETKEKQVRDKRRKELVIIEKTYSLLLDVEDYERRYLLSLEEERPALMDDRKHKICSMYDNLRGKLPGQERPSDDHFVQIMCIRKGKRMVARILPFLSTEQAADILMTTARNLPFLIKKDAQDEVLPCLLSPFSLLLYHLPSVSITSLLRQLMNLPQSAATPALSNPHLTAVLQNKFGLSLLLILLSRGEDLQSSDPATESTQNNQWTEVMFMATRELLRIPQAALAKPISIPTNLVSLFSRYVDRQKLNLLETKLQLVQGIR

T2: FLAG-SART3 (UniProt Q15020)
T2 sequence: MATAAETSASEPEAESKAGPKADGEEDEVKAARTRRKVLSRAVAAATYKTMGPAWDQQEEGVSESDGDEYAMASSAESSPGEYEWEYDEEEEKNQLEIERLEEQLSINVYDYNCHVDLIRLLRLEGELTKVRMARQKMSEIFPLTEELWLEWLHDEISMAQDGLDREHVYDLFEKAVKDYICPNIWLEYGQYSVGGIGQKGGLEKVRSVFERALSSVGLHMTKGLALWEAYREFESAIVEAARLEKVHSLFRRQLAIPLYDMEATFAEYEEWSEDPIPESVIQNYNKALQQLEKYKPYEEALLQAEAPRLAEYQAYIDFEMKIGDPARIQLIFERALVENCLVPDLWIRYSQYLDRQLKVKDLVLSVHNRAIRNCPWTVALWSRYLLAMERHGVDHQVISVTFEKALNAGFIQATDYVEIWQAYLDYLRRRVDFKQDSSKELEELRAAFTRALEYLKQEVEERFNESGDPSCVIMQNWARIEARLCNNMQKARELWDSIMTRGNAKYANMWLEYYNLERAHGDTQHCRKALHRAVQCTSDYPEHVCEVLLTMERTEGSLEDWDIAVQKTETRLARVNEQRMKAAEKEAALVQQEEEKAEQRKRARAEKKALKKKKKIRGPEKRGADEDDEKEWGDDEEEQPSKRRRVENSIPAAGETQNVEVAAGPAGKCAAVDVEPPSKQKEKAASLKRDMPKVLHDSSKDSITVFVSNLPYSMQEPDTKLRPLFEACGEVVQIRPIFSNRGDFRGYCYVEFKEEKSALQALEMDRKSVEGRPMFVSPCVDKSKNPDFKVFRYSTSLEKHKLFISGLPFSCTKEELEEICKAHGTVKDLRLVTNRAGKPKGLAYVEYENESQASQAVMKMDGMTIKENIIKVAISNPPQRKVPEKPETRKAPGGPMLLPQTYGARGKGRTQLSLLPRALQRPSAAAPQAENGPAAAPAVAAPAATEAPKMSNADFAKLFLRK

T3: FLAG-Pat1b (full-length) (human) (UniProt Q86TB9)
T3 sequence: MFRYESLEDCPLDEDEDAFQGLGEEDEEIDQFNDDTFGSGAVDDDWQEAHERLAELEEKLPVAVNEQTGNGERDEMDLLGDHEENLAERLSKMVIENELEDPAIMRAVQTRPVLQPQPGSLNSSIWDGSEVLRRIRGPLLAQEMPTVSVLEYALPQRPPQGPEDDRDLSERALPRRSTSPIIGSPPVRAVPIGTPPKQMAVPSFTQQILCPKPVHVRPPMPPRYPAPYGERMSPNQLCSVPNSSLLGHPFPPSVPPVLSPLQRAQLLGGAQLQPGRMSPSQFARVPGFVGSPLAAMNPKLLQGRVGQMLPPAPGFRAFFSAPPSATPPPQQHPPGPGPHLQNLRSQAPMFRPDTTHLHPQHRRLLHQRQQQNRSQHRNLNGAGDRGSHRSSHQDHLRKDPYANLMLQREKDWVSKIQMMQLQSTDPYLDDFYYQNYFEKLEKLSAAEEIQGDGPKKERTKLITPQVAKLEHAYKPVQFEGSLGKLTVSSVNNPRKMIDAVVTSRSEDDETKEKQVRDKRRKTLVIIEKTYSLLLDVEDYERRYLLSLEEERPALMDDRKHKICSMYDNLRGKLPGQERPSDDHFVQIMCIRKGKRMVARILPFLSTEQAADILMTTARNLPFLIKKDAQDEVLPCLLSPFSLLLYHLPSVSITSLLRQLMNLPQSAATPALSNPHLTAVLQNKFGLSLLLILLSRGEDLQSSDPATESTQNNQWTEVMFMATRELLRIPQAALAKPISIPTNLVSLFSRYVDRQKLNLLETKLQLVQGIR


Assays:
FLAG-Pat1b T522E (human) [1] = biological target: T1, FLAG-Pat1b T522E (human); assay: co-IP; FLAG-tagged proteins in lysates of transfected HEK293 cells on M2 beads, western blotting of bound proteins; in some experiments cells co-transfected with control (beta-globin), SART3 or Lsm1 siRNA
FLAG-SART3 [2] = biological target: T2, FLAG-SART3; assay: co-IP; FLAG-SART3 in HEK293 cells depleted of Pat1b by siRNA, FLAG immunoprecipitation, western blotting
[3] = biological target: T3, FLAG-Pat1b (full-length) (human); assay: co-IP; FLAG-tagged proteins in lysates of transfected HEK293 cells on M2 beads, western blotting of bound proteins; in some experiments cells co-transfected with control (beta-globin), SART3 or Lsm1 siRNA
FLAG-SART3 [4] = biological target: T2, FLAG-SART3; assay: as above
[5] = biological target: T3, FLAG-Pat1b (full-length) (human); assay: co-IP; full-length FLAG-Pat1b HEK293 lysate treated with RNase A, M2 Sepharose, western blotting
[6] = biological target: T3, FLAG-Pat1b (full-length) (human); assay: co-IP; HEK293 cells transfected with FLAG-Pat1b or FLAG-GFP, lysates fractionated into nuclear and cytoplasmic pools, FLAG antibody precipitation of each (Figure S5B)
FLAG-Pat1b T522E (human) [7] = biological target: T1, FLAG-Pat1b T522E (human); assay: as above

Row | Binder | binding (FLAG-Pat1b T522E (human) [1]) | binding [3] | binding (FLAG-SART3 [4]) | binding [5] | binding [6] | binding (FLAG-Pat1b T522E (human) [7]) | binding (FLAG-SART3 [2])
1 | Lsm1 (protein, UniProt O15116 1-133) MNYMPGTASLIEDIDKKHLVLLRDGRTLIGFLRSIDQFANLVLHQTVERIHVGKKYGDIPRGIFVVRGENVVLLGEIDLEKESDTPLQQVSIEEILEEQRVEQQTKLEAEKLKVQALKDRGLSIPRADTLDEY | binds | binds | – | binds | binds | binds | –
2 | Lsm2 (protein, UniProt Q9Y333 1-95) MLFYSFFKSLVGKDVVVELKNDLSICGTLHSVDQYLNIKLTDISVTDPEKYPHMLSVKNCFIRGSVVRYVQLPADEVDTQLLQDAARKEALQQKQ | binds | binds | binds | binds | binds | binds | no binding (condition: cells depleted of Pat1b by siRNA)

Now from value to binder, other results behind:

Row | binding (FLAG-Pat1b T522E (human) [1]) | binding [3] | binding (FLAG-SART3 [4]) | binding [5] | binding [6] | binding (FLAG-Pat1b T522E (human) [7]) | Binder | binding (FLAG-SART3 [2])
3 | no binding | – | – | – | – | – | SART3 (endogenous) (protein, UniProt Q15020 1-963) MATAAETSASEPEAESKAGPKADGEEDEVKAARTRRKVLSRAVAAATYKTMGPAWDQQEEGVSESDGDEYAMASSAESSPGEYEWEYDEEEEKNQLEIERLEEQLSINVYDYNCHVDLIRLLRLEGELTKVRMARQKMSEIFPLTEELWLEWLHDEISMAQDGLDREHVYDLFEKAVKDYICPNIWLEYGQYSVGGIGQKGGLEKVRSVFERALSSVGLHMTKGLALWEAYREFESAIVEAARLEKVHSLFRRQLAIPLYDMEATFAEYEEWSEDPIPESVIQNYNKALQQLEKYKPYEEALLQAEAPRLAEYQAYIDFEMKIGDPARIQLIFERALVENCLVPDLWIRYSQYLDRQLKVKDLVLSVHNRAIRNCPWTVALWSRYLLAMERHGVDHQVISVTFEKALNAGFIQATDYVEIWQAYLDYLRRRVDFKQDSSKELEELRAAFTRALEYLKQEVEERFNESGDPSCVIMQNWARIEARLCNNMQKARELWDSIMTRGNAKYANMWLEYYNLERAHGDTQHCRKALHRAVQCTSDYPEHVCEVLLTMERTEGSLEDWDIAVQKTETRLARVNEQRMKAAEKEAALVQQEEEKAEQRKRARAEKKALKKKKKIRGPEKRGADEDDEKEWGDDEEEQPSKRRRVENSIPAAGETQNVEVAAGPAGKCAAVDVEPPSKQKEKAASLKRDMPKVLHDSSKDSITVFVSNLPYSMQEPDTKLRPLFEACGEVVQIRPIFSNRGDFRGYCYVEFKEEKSALQALEMDRKSVEGRPMFVSPCVDKSKNPDFKVFRYSTSLEKHKLFISGLPFSCTKEELEEICKAHGTVKDLRLVTNRAGKPKGLAYVEYENESQASQAVMKMDGMTIKENIIKVAISNPPQRKVPEKPETRKAPGGPMLLPQTYGARGKGRTQLSLLPRALQRPSAAAPQAENGPAAAPAVAAPAATEAPKMSNADFAKLFLRK | –
4 | no binding | binds | binds | – | – | – | Lsm8 (protein, UniProt O95777 1-96) MTSALENYINRTVAVITSDGRMIVGTLKGFDQTINLILDESHERVFSSSQGVEQVVLGLYIVRGDNVAVIGEIDEETDSALDLGNIRAEPLNSVAH | no binding (condition: cells depleted of Pat1b by siRNA)
